Among the data in publication PMC12136788 are binding signal values, retold here.

This is one part of the list.

The labels stand for the following.
T1: UNK ZnF1-3 (human, UniProt Q9C0B0 31-174)
T1 sequence: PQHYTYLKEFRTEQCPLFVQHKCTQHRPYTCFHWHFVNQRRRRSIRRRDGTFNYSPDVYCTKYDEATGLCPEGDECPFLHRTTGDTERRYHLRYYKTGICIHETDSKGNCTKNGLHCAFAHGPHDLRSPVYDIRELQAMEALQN

B1: 43796116_43796236_697_CDS_ENSG00000152242_ENST00000321319|human|control|control (ssRNA)
RNA: GGGAGUUCUACAGUCCGACGAUCUCCUGAAGGGUCUCCUUCUACCGCCGUUUCUGCCUGAGAGGGUUCAUUCUCUUCUGCGGAAGACAACGUAUCUGAAUCAGCCAGGUGACCACUAGAGGAAGGGGAAAGCAUGCAGUGAUUCAACAGAGGAUUGAGCAUCA
B2: 11210982_11213420_465_CDS_ENSG00000130164_ENST00000252444|human|control|control (ssRNA)
RNA: GGGAGUUCUACAGUCCGACGAUCCAUCGCACCUCCAGAACUGAGGAAUGCAGCGGUUGACACGGCCCCCACAGCUGAAGUCCCCGGAUUUGCAGGUGACAGACAAGCACGUCUCCUGGGACUCAUCAGAGCCAUCCUGGCACUCAACAGAGGAUUGAGCAUCA
B3: chr5:80946147:80946148:-_ENSG00000145687_ENST00000505980|hu_mus|motif|central (ssRNA)
RNA: GGGAGUUCUACAGUCCGACGAUCUGUCUGAGCCGAUUUCUGAGCUCCUACAUGGAGCAGAUAUUCAUACACGUAGAGUGCGGACUUCUCCCGGGCCUGGCUGUCGGACGGGACGGCGCUGCUGUUACUCUUGCCUUUGCCGUACAACAGAGGAUUGAGCAUCA
B4: chr1:214815296:214815297:+_ENSG00000117724_ENST00000366955|hu_hu|motif|central (ssRNA)
RNA: GGGAGUUCUACAGUCCGACGAUCAAGUUUUAAUUCCUUAUUUCUUAGCAUAGCUUCUAAUUGCACCAACUGCGCAUUAUAACGGUCGGGAGAAAUUUCUUUAACUUCAAGAUCCAUCUGAGGUUUAAAAUUACAUUGAUUUCUCAACAGAGGAUUGAGCAUCA
B5: chr14:96998876:96998877:+_ENSG00000090060_ENST00000216277|hu_hu|motif|central (ssRNA)
RNA: GGGAGUUCUACAGUCCGACGAUCAUAAAGCUGGCAAGUUCUUGCUACUAGCAUAGCCCAGGAAACACCACCGAGGAAACCGGAUAUAUUGGAAUAGAUGUUGUGGCGUUUGGCCCAUAGUUUGAUAGCUCUCAGAGUUAACCUCAACAGAGGAUUGAGCAUCA
B6: chr6:48548902:48548903:+_ENSMUSG00000052751_ENSMUST00000163452|mus_hu|FALSE|FALSE (ssRNA)
RNA: GGGAGUUCUACAGUCCGACGAUCAGAGAACAGAACAAGGCCCAAUAGGUAGAAAUUAUAGGAAAGCAGAAUUCAUUCAUUAUAAGGAAGGAUUUCUAACAAUUAGAAUUUCUAACAAUUAGAAUCAUCCAGGGCCUCAGGAGGCAACAGAGGAUUGAGCAUCA
B7: chr5:110834802:110834803:-_ENSG00000164211_ENST00000296632|hu_mus|FALSE|FALSE (ssRNA)
RNA: GGGAGUUCUACAGUCCGACGAUCCCACCAACCAACCAAACGAAGGAAAGGGAAACACGUAAGACCAGUGAGGAGCAGAAACAGCAACCCACACGGAAAUGGCAUGCACCACUGAGCGCUGCGUGUUCACACAAACACAAAAUGCAACAGAGGAUUGAGCAUCA
B8: chr22:41363808:41363809:+_ENSG00000100387_ENST00000216225|hu_mus|FALSE|FALSE (ssRNA)
RNA: GGGAGUUCUACAGUCCGACGAUCGUCCAACGGACACACCUGCCUCGUUUUGAGCCAUCGAGAGAUGCAGUGGAAAUGAAAAGCAUGGUUGCAGACUCCCCAUGCAACCGUACACUCUUCGGAAGUAGCUGACGCCUGGUUGGCCAACAGAGGAUUGAGCAUCA
B9: chr2:10942720:10942721:-_ENSG00000143870_ENST00000272227|hu_mus|FALSE|FALSE (ssRNA)
RNA: GGGAGUUCUACAGUCCGACGAUCAAUAACUUCUCUGUUGAAAUUUGAUGGCGUCAACUCGAUGACAUCAUCACUAGAAGAAUACAGACCGCUGACUGCUAGAAAGAAGGUGCAGCUCACCAGACCGAGCACCAGGCGAGCCAUCAACAGAGGAUUGAGCAUCA
B10: 132740746_132740866_469_3pUTR_ENSG00000187239_ENST00000446176|human|control|control (ssRNA)
RNA: GGGAGUUCUACAGUCCGACGAUCUUUCCUCUCCUGUUUCAGUUCCUGAACAUAGCGUGCCAAGUCCACAAUGAUCUGUGAUGCCAUGUUCUCGGAGAUAACUUCAUGCUGCCCUGCGUAAUCAUUCAUUUCGUUCAGGUUGGACAACAGAGGAUUGAGCAUCA
B11: chr7:7679991:7679992:-_ENSG00000106399_ENST00000396682|hu_hu|hu_hu_hu_mus_False|38_38 (ssRNA)
RNA: GGGAGUUCUACAGUCCGACGAUCUGGGAUGAAUCUUUUCCAGCUUCCCCACGAAGCACACGGGCCGGUCGAUAUACUGUGGUAACAUGCUGGCGUUGAUGCGCGACUUGGGGAGCUGCAUUAUGUCCUCCAUGAUUCUGCCGCCAACAGAGGAUUGAGCAUCA
B12: chr2:73747422:73747423:-_ENSMUSG00000018770_ENSMUST00000018914|mus_hu|FALSE|FALSE (ssRNA)
RNA: GGGAGUUCUACAGUCCGACGAUCCUGAGACACACCAUUCUGGGCCCCAUUAAAUACCGUAGAGCCCUCUCCAGUCCUACUAGCCUCUGGUCGAGAUAACACUGAUGCAGAAAUUGGUCUGUAUGCAACUCUGGAUCCAGCUCGCAACAGAGGAUUGAGCAUCA
B13: chr14:89307221:89307222:+_ENSG00000165533_ENST00000346301|hu_mus|hu_hu_hu_mus_False|38_58 (ssRNA)
RNA: GGGAGUUCUACAGUCCGACGAUCUCCUGUUUGGUUAGUGCCAGGGAGCUUCAAAGAUGUGCCAGGGCGUGGGACCUGAGCUAUAGCAUUUUCAUCCAGCAUCAUUUCAGCAAUUCCUUCCUGGUCCACAUCAAUUUCAUCUAUCAACAGAGGAUUGAGCAUCA
B14: chr1:60041781:60041782:+_ENSMUSG00000041040_ENSMUST00000036540|mus_hu|mus_mus_mus_hu_False|1_98 (ssRNA)
RNA: GGGAGUUCUACAGUCCGACGAUCAAGUUUACAAUAGCUCAACUUUAGCAGUAGUGGCAAAUUUUCUUUUAUUUUCCUUCACAAAAGAAAAUCUUUAUAACCCAGUCCUAGUCUUGGACAUAGUGAAAGCUAUAAAUGCCACUGCAACAGAGGAUUGAGCAUCA
B15: chr17:65336665:65336666:-_ENSG00000197170_ENST00000356126|hu_hu|motif|central (ssRNA)
RNA: GGGAGUUCUACAGUCCGACGAUCUAUAUACUGCUUUUAUUAUUGGAAUAUGUUUGUUAGUUGAAUGAAAACAAACAGUAGCGGAAAAGGUUUCAAAUGAUAGAAAAACAUAUCUGGGUAAGUUAUGACACAACUUUUUGUGUACAACAGAGGAUUGAGCAUCA
B16: chr19:32867047:32867048:+_ENSMUSG00000013663_ENSMUST00000013807|mus_hu|FALSE|FALSE (ssRNA)
RNA: GGGAGUUCUACAGUCCGACGAUCAGCACAAAGAUUGUAUAUCUUGUAAUGGUUUUUAUGCUUUGAAUCCAAAAACCUUACUACAUCAUCAAUAUUGUUCCUGUAUACGCCUUCAAGUCUUUCUGCAGGAAAUCCCAUAGCAAUCAACAGAGGAUUGAGCAUCA
B17: chr6:31368937:31368938:+_ENSMUSG00000025609_ENSMUST00000026699|mus_hu|FALSE|FALSE (ssRNA)
RNA: GGGAGUUCUACAGUCCGACGAUCGGGAGGAUAGUUGCUCUCUGAAGACCAUCUUGAAGAUUGGUCAUUUGGUUUGUCCACUAAAAUGUUCUCGGGAAGGUAGGUGGAGGAAAAGGAGCUCCACUUGUGUAGCGCGUAGGGGAGCAACAGAGGAUUGAGCAUCA
B18: 113712620_113712740_1128_3pUTR_ENSMUSG00000003316_ENSMUST00000169020|mouse|control|control (ssRNA)
RNA: GGGAGUUCUACAGUCCGACGAUCGGGACCGAGGAAGGUUUUCCACAUUGCACCGGUAUUUUUUCAAGUCACUCUUACAGGAUUUGGCUAAUGAGUAACUGACUUUAUAAUCCUGGGCAAUGAGCUUCUGGCGUGUAGUUAGUGCAACAGAGGAUUGAGCAUCA
B19: chr7:141441981:141441982:+_ENSG00000106028_ENST00000265304|hu_mus|hu_hu_hu_mus_False|38_78 (ssRNA)
RNA: GGGAGUUCUACAGUCCGACGAUCCUCAUGUCUUACAAACUGACGAAAUACCUGUAAUACAGGUCUUCGAAACAUGGCUUCUGUUUUUCUUACAACCAGUCUAAUCUGCUUUUCCUAAAGGAAAGAAAGAAAAGAGAAAAAUGACAACAGAGGAUUGAGCAUCA
B20: chr9:96978117:96978118:-_ENSMUSG00000032449_ENSMUST00000035024|mus_hu|FALSE|FALSE (ssRNA)
RNA: GGGAGUUCUACAGUCCGACGAUCUUUUUUUUUAAUCUUAACAUGGUAUUCUCUCCUACUCUCUCACCCUCCCCCCCAAAAAAGGCCACAAAGUGCUUUCACGAAGCGUCAUUCUUUUAGAUAAAGCCAUUGCACAAAAUGUACCAACAGAGGAUUGAGCAUCA
B21: chr1:27731043:27731044:-_ENSG00000158195_ENST00000430629|hu_mus|motif|central (ssRNA)
RNA: GGGAGUUCUACAGUCCGACGAUCCAGGUCCCACCUCCCAACCUUUGGGAAGAAAGGGUCUAUUUUUAGACAGUAUUCCCUCGGUGCAUUAGCUAGCAGAAAUCUUGAUAUGGGAAACACCAAGAGCCUAUUGGAAUAGGUCCUCAACAGAGGAUUGAGCAUCA
B22: chrX:147030410:147030411:+_ENSG00000102081_ENST00000218200|hu_mus|motif|central (ssRNA)
RNA: GGGAGUUCUACAGUCCGACGAUCACUUCAUGCCCUGUGCCAUCUUGCCUACUAUUUGUCUUUGGCCUAACAAAGUUUUCGGAAAUGGAGUAAGAAUUACGGAAAUGGUAGAGGAAAUAUAACUUCGGAAUUAUGUAGCUUAUUCAACAGAGGAUUGAGCAUCA

The assay deals with T1, UNK ZnF1-3. The assay is described as follows: nsRBNS (natural sequence RNA bind-n-seq); RBNS binding buffer (assumed for nsRBNS): 25 mM Tris pH 7.5, 150 mM KCl, 3 mM MgCl2, 0.01% Triton X-100, 500 ug/ml BSA, 20 U/ml SUPERase-In, 4 C; UNK is unkempt and MSI1 is Musashi-1; names of the RNAs are library labels; protein concentration not given here; high values mean tight binding.
B1: the binding signal turned out to be 0.987 enrichment R.

In turn, B2 registered a binding signal of 0.9 enrichment R.

In the case of B3, the binding signal is 0.614 enrichment R.

Turning to B4, the binding signal amounted to 0.862 enrichment R.

B5 showed a binding signal of 1.15 enrichment R.

Molecule B6 showed a binding signal of 1.6 enrichment R.

B7 had a binding signal of 1.54 enrichment R.

Consider B8, for which the binding signal was 1.24 enrichment R.

In the case of B9, the binding signal is 1.04 enrichment R.

B10: the binding signal turned out to be 0.523 enrichment R.

The molecule B11 yielded a binding signal of 0.489 enrichment R.

As for B12, the binding signal was determined as 1.19 enrichment R.

Turning to B13, the binding signal worked out at 1.05 enrichment R.

Molecule B14 returned a binding signal of 0.472 enrichment R.

For the molecule B15, the binding signal was 1.19 enrichment R.

Turning to B16, the binding signal turned out to be 0.885 enrichment R.

The molecule B17 had a binding signal of 1.81 enrichment R.

The molecule B18 registered a binding signal of 0.86 enrichment R.

The molecule B19 came in with a binding signal of 0.681 enrichment R.

On to B20, for which the binding signal worked out at 1.21 enrichment R.

B21 registered a binding signal of 0.922 enrichment R.

Molecule B22 yielded a binding signal of 1.52 enrichment R.
